# Measured values published in PubChem BioAssay AID485364 (National Center for Advancing Translational Sciences (NCATS), 2010).
# About 11,000 (3.1%) of roughly 360,000 compounds were called active. The shares of active, inactive and inconclusive entries below differ from those in the screen. The call rests on the fitted dose curve; in most records, active means well fitted inhibition curve with a large enough effect; inconclusive means small, poorly fitted or top-dose-only effect; inactive means no such curve, though single readings can be large or run the other way. Potencies of inconclusive entries are left out as doubtful fits.
# Biological target: Schistosoma mansoni thioredoxin glutathione reductase (TGR) (UniProt Q962Y6)
# Experiment: qHTS Assay for the Inhibitors of Schistosoma Mansoni Peroxiredoxins; further: nearly all actives have a fitted effect of over 60% in size
# Settings: purified TGR, DTNB reduction, TNB absorbance 405 nm; activity change, negative = inhibition: at 114 µM (top of the series) unless noted
# Method in brief: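 TGR 20 nM + NADPH 100 uM (dispensed conc.), cpd preinc 15 min RT; start with NADPH (500 uM addition) then DTNB (15 mM addition). Kinetic TNB absorbance, 405 nm filter. Four-parameter Hill fit across titration.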
# On the % scale 0 is the no-effect control and ±100 the full control effect; potency means the concentration at half of the fitted maximal effect; tags describe the fitted curve by direction and shape.
Structure (SMILES),Potency,"activity change, negative = inhibition"
COc1ccc(/C=C2\SC(=O)NC2=S)cc1OC,active: 17.8 µM,
COc1ccc(N2CSC3=C(C#N)C(c4ccc(OC)c(OC)c4)CC(=O)N3C2)c(OC)c1 (stereo not drawn),active: 7.94 µM,
COc1ccc(NC(=O)C/C(C)=N/NC(=O)c2cnccn2)cc1Cl,"inconclusive [inhibitor, partial curve]",
CCN1C(=O)NC(=O)/C(=C\c2cn(CC(=O)N3CCCC3)c3ccccc23)C1=O,"inconclusive [inhibitor, full curve]",
CC1(OC(=O)CCc2ccccc2)C(=O)C=C2C=C3CCCN3C=C2C1=O (stereo not drawn),active: 35.5 µM,
Nc1c(Cl)ncnc1N/N=C/c1cccc(O)c1,"inconclusive [inhibitor, partial curve]",
O=C(O)/C(=C\c1ccco1)NC(=O)c1ccco1,"inconclusive [inhibitor, partial curve, poor fit]",
CC(C)c1ccc(/C=C/C(=O)N2CCCCCC2)cc1,,inactive: 3.66%
CCN(CC)CCOC(=O)c1ccc(N/C=C(/C#N)c2nc(-c3cc4ccccc4oc3=O)cs2)cc1,"inconclusive [inhibitor, partial curve]",
Cc1cccc(-n2c(O)c(C=NC34CN5CN(CN(C5)C3)C4)c(=O)[nH]c2=O)c1,active: 7.94 µM,
Cc1ccsc1C1NC(=O)c2c(sc3c2CCCC3)N1 (stereo not drawn),active: 35.5 µM,
Oc1ccc2c3c1O[C@H]1c4[nH]c5ccccc5c4C[C@@]4(O)C(C2)N(CC2CC2)CC[C@]314,active: 17.8 µM,
COc1cc(/C=C/C(=O)OCC(=O)N(C)Cc2ccccc2)ccc1O,"inconclusive [inhibitor, partial curve]",
COc1ccc(S(=O)(=O)CCC(=O)NCCc2ccc(C)cc2)cc1,active: 31.6 µM,
Cc1ccc(S(=O)(=O)c2nc(S(C)(=O)=O)sc2N2CCC(C)CC2)cc1,active: 1.78 µM,
CC(=O)Nc1c2c(nn1-c1cccc(Cl)c1)CS(=O)(=O)C2,,inactive: -34.9%
COc1ccc(-c2cn(-c3cccc(C)c3)c(=O)[nH]2)cc1OC,active: 12.6 µM,
Cc1[nH]n(-c2ccccc2)c(=O)c1N=Nc1c(O)cc(S(=O)(=O)N(C)C)c2ccccc12,"inconclusive [inhibitor, partial curve, poor fit]",
Cc1ccnc(Sc2ccc([N+](=O)[O-])cc2[N+](=O)[O-])n1,"inconclusive [inhibitor, full curve]",
Cc1occc1C(=O)NCCCc1ccccc1,"inconclusive [inhibitor, full curve]",
C=C1CCC[C@]2(C)C[C@H]3OC(=O)C(CNC(C)CCCC(C)C)[C@H]3CC12 (stereo partly drawn),,inactive: 6.99%
Cc1ccc(C2Nc3cccc4cccc(c34)N2)s1,active: 17.8 µM,
COc1ccc2c(CNC3CCC(C)CC3)c(C(=O)O)n(Cc3ccc(F)cc3)c2c1 (stereo not drawn),,inactive: -1.29%
O=C(NCc1ccco1)c1ccc(CS(=O)Cc2cccc(Cl)c2)o1 (stereo not drawn),"inconclusive [inhibitor, partial curve]",
COc1ccc(-c2cn3c(n2)sc2cc(C(=O)NCCCN4CCN(C)CC4)ccc23)cc1,"inconclusive [inhibitor, single point]",

Structure (SMILES),Potency,"activity change, negative = inhibition"
Cc1nc(NC(=O)c2ccccc2)sc1C1(C)CC(c2ccccc2F)=NO1 (stereo not drawn),"inconclusive [inhibitor, partial curve]",
COc1ccc(Cn2c(CO)cnc2SCc2ccccc2)cc1,"inconclusive [inhibitor, single point]",
CN(C1=C(NC(=O)c2ccccc2)C(=O)c2ccccc2C1=O)C1CCS(=O)(=O)C1 (stereo not drawn),"inconclusive [inhibitor, partial curve]",
O=C(NC(=S)Nc1ccc(-c2ccc(CO)o2)cc1)c1cccs1,active: 8.91 µM,
COc1ccccc1NC(=O)CC(=O)CSc1nnc(-c2ccc(C)cc2)n1-c1ccccc1,,inactive: -2.69%
COc1ccc2[nH]c3c(c2c1)CCN[C@H]3C,"inconclusive [inhibitor, partial curve]",
COc1ccccc1N(CC(=O)N(c1ccccc1)C(C)C)S(=O)(=O)c1cccs1,,inactive: 10.5%
O=C(COc1ccc(Cl)cc1)OCc1cc(=O)n2nc(C3CCCCC3)sc2n1,,inactive: 4.26%
CC1CCN(C(c2ccc(N(C)C)cc2)c2nnnn2Cc2ccc(F)cc2)CC1 (stereo not drawn),,inactive: 0.125%
O=C(Nc1ccncc1)c1ccc([N+](=O)[O-])cc1Cl,"inconclusive [inhibitor, single point]",
CC(=O)Nc1ccc(OS(=O)(=O)c2ccc(C(C)(C)C)cc2)cc1,,inactive: 1.57%
CCc1ccccc1NC(=O)CN(c1cc(C(F)(F)F)ccc1Cl)S(=O)(=O)c1ccccc1,,inactive: -6.08%
CCC(C)NC(=O)/C(=C/c1ccco1)c1ccccc1 (stereo not drawn),active: 10 µM,
COc1ccc(C(c2nnnn2CS(=O)(=O)c2ccc(C)cc2)N2CCN(c3ncccn3)CC2)cc1 (stereo not drawn),,inactive: -0.0308%
COC(=O)c1ccc(CSc2nnc(SCc3ccc(C(=O)OC)o3)s2)o1,"inconclusive [inhibitor, partial curve]",
O=C(CSc1nnc(CNC(=O)c2c(F)cccc2F)o1)NCc1ccc(F)cc1,active: 28.2 µM,
COc1cc(C2C(C(C)=O)=C(O)C(=O)N2CCN(C)C)ccc1O (stereo not drawn),"inconclusive [inhibitor, single point]",
O=C(NCCN1CCc2ccccc2C1)C1CCN(S(=O)(=O)N2CCC3(CC2)OCCO3)CC1,"inconclusive [inhibitor, single point]",
C=COCCNC(=S)Nc1ccccc1,"inconclusive [inhibitor, partial curve]",
Cc1c(C(=O)Nc2c(F)cccc2F)sc2ncn(Cc3ccccc3F)c(=O)c12,,inactive: -1.13%
Cc1ccc(N(Cc2cc3ccc(C)cc3[nH]c2=O)C(=O)c2ccco2)c(C)c1,active: 8.91 µM,
COC(=O)c1ccc(N2C(=O)CC(Sc3n[nH]c(C)n3)C2=O)cc1 (stereo not drawn),active: 1.41 µM,
Cc1cc2n(n1)CCCN2C(=O)Nc1ccccc1C(F)(F)F,,inactive: -0.798%
COc1cccc(C2c3[nH]c4ccccc4c3C[C@H]3C(=O)N(CCCCCO)CC(=O)N23)c1 (stereo partly drawn),,inactive: 3.73%
COC(=O)c1[nH]c(C)c(/C(O)=C2\C(=O)C(=O)N(CCN(C)C)C2c2ccco2)c1C (stereo not drawn),"inconclusive [inhibitor, partial curve]",

Structure (SMILES),Potency,"activity change, negative = inhibition"
COC(=O)c1ccc(C2N=C(c3cccs3)CC(c3ccccc3O)N2)cc1 (stereo not drawn),"inconclusive [inhibitor, single point]",
CC1CN(CC(=O)c2ccccc2Cl)CC(C)O1 (stereo not drawn),active: 44.7 µM,
Cc1onc(-c2c(Cl)cccc2Cl)c1C(=O)n1nnc2ccccc21,"inconclusive [inhibitor, partial curve]",
O=C(NCC1CCCCC1)C1(CC2CC(c3cccc(Br)c3)=NO2)CCNCC1 (stereo not drawn),active: 44.7 µM,
CCCNC(=O)c1ccc(N2CCC3(CC2)CC(c2cccc(Br)c2)=NO3)c(NC(=O)c2cccc(C)c2)c1,,inactive: 5.94%
O=C(Nc1ccc2c(c1)OCO2)NC1(C(F)(F)F)Oc2ccccc2O1,active: 35.5 µM,
COc1ccc(C(C(=O)NC2CCCC2)N(C(=O)c2snc(C(N)=O)c2N)c2cccc(O)c2)cc1 (stereo not drawn),"inconclusive [inhibitor, partial curve]",
O=[N+]([O-])C1=CC=C2C(=NC3(CCCCC3)N2O)C1=NC1CCCCC1,"inconclusive [inhibitor, full curve, poor fit]",
Cc1c(S(=O)(=O)N2CCc3ccccc3C2)c(=O)n(C)c(=O)n1C,"inconclusive [inhibitor, partial curve]",
C#CCOCCOCCOCCNc1nc(N2CCOCC2)nc(N2CCN(C(=O)[C@H](CCC(=O)O)n3cc(C(N)Cc4ccc(O)cc4)nn3)CC2)n1 (stereo partly drawn),"inconclusive [inhibitor, full curve]",
COc1ccc(NCc2ccc([N+](=O)[O-])s2)cc1,"inconclusive [inhibitor, partial curve]",
CC(=O)c1ccc2c3c(ccc(O)c13)CC2,"inconclusive [inhibitor, partial curve]",
Cc1c(C)c2c(OCC(=O)NCc3ccco3)cc3c(c2oc1=O)CCC(C)(C)O3,,inactive: -10.3%
CC(C)Cn1c(N)c(C(=O)NCCN2CCOCC2)c2nc3ccccc3nc21,"inconclusive [inhibitor, partial curve]",
COc1cccc(OCc2nnc(SCC(=O)NCc3ccco3)n2C)c1,"inconclusive [inhibitor, partial curve, poor fit]",
CC(OC(=O)c1nn(C)c(=O)c2ccccc12)C(=O)Nc1ccc(S(N)(=O)=O)cc1 (stereo not drawn),,inactive: -10.9%
Cc1cccc(N(Cc2ccccc2)C(=O)Cc2ccc(S(=O)(=O)N3CCOCC3)s2)c1,,inactive: -10.9%
CN1c2ccccc2N(C)C1c1c(O)ccc2ccccc12,"inconclusive [inhibitor, single point]",
CCOc1ccc2nc(NC3=NC(C)(C)C=C(C)N3)nc(C)c2c1,,inactive: 23.1%
COc1ccc(OCC(=O)NNC(=S)NC(=O)c2ccc(Br)o2)cc1,"inconclusive [inhibitor, partial curve, poor fit]",
CCOCC(=O)Nc1nc2ccc(C)cc2s1,"inconclusive [inhibitor, partial curve]",
COc1cc(CNc2ccc(NC(C)=O)cc2)ccc1OCc1ccccc1C,,inactive: 21.8%
COc1ccc(-c2nc(CS(=O)CC(=O)NCc3ccco3)c(C)o2)cc1OC (stereo not drawn),"inconclusive [inhibitor, partial curve]",
